Reference: PubChem BioAssay AID1346428 (National Center for Advancing Translational Sciences (NCATS), 2018)
About 1,200 (2.5%) of roughly 48,000 compounds were called active. Another 2% or so got no clear call; they are omitted.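 How the source made its calls: active means activation of at least 60% and not above a set upper limit (about 1 call in 100 departs from these limits); inconclusive means activation of 40% to 60%, or above that upper limit; inactive means activation under 40%.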 The list shows a part of the results.

Molecular target: Probable G-protein coupled receptor 32 (Homo sapiens) (UniProt O75388)
Assay: qHTS for Agonists of Human Resolvin D1 Receptor DRV1
Conditions: CHO-K1 GPR32 beta-arrestin PathHunter luminescence, 90 min; at 76.9 µM; active compounds read high; zero percent set by DMSO-only wells
Procedure, shortened: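 PathHunter enzyme-fragment complementation, CHO-K1 GPR32 stable line; 2,500 cells/well, overnight attach; cpd 90 min 37 °C 5% CO2; detection reagent 1 h RT; chemiluminescence. DMSO = EC0.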

Chain of UniProt O75388 (O75388 whole entry, looked up): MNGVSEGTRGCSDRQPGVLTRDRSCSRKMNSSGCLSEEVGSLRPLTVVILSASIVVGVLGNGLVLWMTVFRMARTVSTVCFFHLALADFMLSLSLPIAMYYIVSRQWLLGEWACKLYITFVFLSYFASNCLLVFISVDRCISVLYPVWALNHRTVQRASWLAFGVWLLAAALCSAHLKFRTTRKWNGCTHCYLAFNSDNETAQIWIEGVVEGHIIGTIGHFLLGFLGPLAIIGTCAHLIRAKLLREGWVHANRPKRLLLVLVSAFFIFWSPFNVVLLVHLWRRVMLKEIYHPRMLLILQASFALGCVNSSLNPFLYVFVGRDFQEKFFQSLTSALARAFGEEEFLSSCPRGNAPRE

activation, inactive:
COc1cccc(-c2nc(SCc3cccc(Br)c3)n3[nH]c(=O)cc3n2)c1 18.5%
O=C(CCc1ccccc1)NCc1ccc2c(c1)CCN2C(=O)c1ccccc1 -18.4%
CC(=O)N1CCc2c(sc3c2c(=O)n(CCc2ccccc2)c(=O)n3CC(=O)Nc2ccccc2F)C1 -12.5%
COc1ccccc1NC(=O)c1oc2ccccc2c1NC(=O)Cc1cccs1 7.59%
Cn1cc(C(=O)O)c(=O)c2cc(S(=O)(=O)N3CCOCC3)ccc21 -24.8%
COc1cc2c(cc1OC)C(c1ccc(Cl)cc1)N(c1cccc(C#N)c1)C(=O)C2 (centres undefined) -1.09%
COc1ccccc1N1CCN(c2ccc(=O)n(CC(=O)Nc3cc(F)ccc3C)n2)CC1 22.6%
COc1ccc(-n2c(SCC(=O)c3ccc(Cl)cc3)nc3c([nH]c4ccccc43)c2=O)cc1 31.7%
COc1cccc(NC(=O)Cn2c(=O)n(-c3ccccc3)c(=O)c3ccc(C(=O)NCc4ccc5c(c4)OCO5)cc32)c1 -16.2%
CCC(NC(C)C)C(O)c1ccc(O)c(O)c1 (centres undefined) 14.1%
Cn1cc(S(=O)(=O)N2CCCCCC2)cc1C(=O)N1CCN(c2ccccc2F)CC1 -5.64%
COc1ccc(CCNc2ncnc3onc(-c4ccc(Cl)cc4)c23)c(OC)c1 20.2%
CCc1ccc(NC(=O)CN2C(=O)C3CCCN3c3ccc(S(=O)(=O)N(CC)CC)cc32)cc1 (centres undefined) -18.6%
Cc1c(CC(=O)N2CCCCC2)c(=O)oc2cc(O)ccc12 10.1%
Cc1ccccc1Nc1sc(C(=O)c2ccccc2)c(N)c1S(C)(=O)=O -32.2%
CCC(Cc1c(I)cc(I)c(N)c1I)C(=O)O (centres undefined) -4.76%
Cc1ccc(N(CC(O)Cn2c3ccccc3c3ccccc32)S(=O)(=O)c2ccc(F)cc2)cc1 (centres undefined) -6.9%
Cc1cc(NC(=O)CSc2nc(-c3cccc(F)c3)nc3c2c(=O)n(C)c(=O)n3C)no1 -2.82%
CCc1ccc(NC(=O)Cn2c(=O)n(CCCC(=O)NCc3ccccc3Cl)c(=O)c3ccccc32)cc1 -4.45%
CCOC(=O)c1ccc(N2CC3=C(C2=O)C(c2ccc(OC)cc2)NC(=O)N3C)cc1 (centres undefined) 0.404%
COc1ccc2c(Sc3ccc(C)cc3)c(C(=O)NCC(C)c3ccccc3)[nH]c2c1 (centres undefined) -6.33%
CCn1cc(C(=O)N2CCN(c3cccc(C)c3)C(C)C2)c(=O)c2cc(S(=O)(=O)N3CCOCC3)ccc21 (centres undefined) 5.15%
COc1ccc(-c2nsc(NC(=O)c3oc4ccccc4c3C)n2)cc1 -19.3%
CCCNc1ncnc2c1c(-c1ccccc1)cn2-c1ccccc1 -40.1%
C[C@]12CC[C@@H]3c4ccc(O)cc4CC[C@H]3[C@@H]1CC[C@@H]2OC(=O)CCC1CCCC1 30.8%
COCCn1c(C)cc(O)c(C(c2ccccc2Cl)N2CCCCC2)c1=O (centres undefined) -2.9%
CCCN1CCN(CCCNC(=O)c2cc3c(s2)-c2ccccc2OC3)CC1 18.5%
N#Cc1ccccc1OCC(=O)N1CCN(c2ccccc2)CC1 5.81%
CN(C)c1ccc(CNC(=O)CCCN2C(=O)CCn3nc(-c4cn(C)c5ccccc45)cc32)cc1 -6%
O=C(Cn1ccc2cc(S(=O)(=O)N3CCCCCC3)ccc21)NCc1cccc(Cl)c1 -2.23%
Cc1coc2c(C)c3oc(=O)c(CCC(=O)N4CCCCC4)c(C)c3cc12 -14.8%
Cc1nc2c(c(C)c1CCC(=O)Nc1ccc(F)cc1)c(=O)n(C)c(=O)n2C 21.5%
Cc1c(NS(=O)(=O)c2ccc(Cl)cc2)c(=O)n(-c2ccccc2)n1C -9.35%
Cc1ccc(Cn2cc(CCC(=O)NCC(C)c3ccccc3)c3ccccc32)cc1 (centres undefined) -22.8%
COc1ccc(NC(=O)Cn2nnc(-c3nc(-c4ccncc4)no3)c2N)cc1OC -5.02%
Cc1cccc(C)c1NC(=O)C1CCCN1S(=O)(=O)c1cccc2nsnc12 (centres undefined) -2.36%
CCc1cccc(-n2nnc(S(=O)(=O)c3ccc(OC)cc3)c2C)c1 30.3%
COc1ccc(C2=NN(CCC(=O)NCCc3ccccc3)C(=O)CC2)cc1 -12.8%
COCCn1c(C)cc(O)c(C(c2ccccc2F)N2CCN(c3ccccc3)CC2)c1=O (centres undefined) -12.3%
COc1ccccc1CCNC(=O)C(=O)NCC(c1cccnc1)N1CCN(c2ccccc2)CC1 (centres undefined) -12.6%
Cc1ccc(NC(=O)c2cccc(NC(=O)N3CCSc4ncccc43)c2)cc1F 2.96%
CCOc1ccc(CNC(=O)c2ccc(NC(=O)N3CCSc4ncccc43)cc2)cc1 6.51%
COc1ccc(-c2cc(C(F)(F)F)nc(SCC(=O)Nc3ccc(O)cc3)n2)cc1OC -1.21%
Cc1ccc(C)c(NC(=O)c2cnc3sc(N4CCOCC4)nn3c2=O)c1 -6.11%
CCN(CC)CCCNC(=O)CCc1c(C)nc2c(c1C)c(=O)n(C)c(=O)n2C 7.85%
CCCN1C(=O)c2oc3cc(C)cc(C)c3c(=O)c2C1c1ccc(F)cc1 (centres undefined) -0.38%
CCCCOCCOC(=O)c1cccnc1 35.4%
Cc1cc(=O)c2cc(C(=O)Nc3cccc(C)c3C)ccc2[nH]1 -3.21%
COc1ccc(-c2nc3cc(NC(=O)COc4ccc(C)c(C)c4)ccc3o2)cc1 12.1%
COc1ccc(C(=O)NCc2nc(-c3cccc(C)c3)no2)cc1OC -7.24%
Cc1cc(NS(=O)(=O)c2cn(C)c(C)n2)ccc1Br 10%
COc1cccc(C(=O)COC(=O)c2cc(-c3cccs3)nc3ccccc23)c1 -5.02%
Cc1ccccc1OCC(=O)Nc1nnc(SCc2cc(=O)n3cc(Cl)ccc3n2)s1 -4.36%
COc1cccc(CNC(=O)CCc2c(C)nc3c4c(C)cc(C)nc4nn3c2C)c1 -21.4%
Cc1ccc(CCNc2nc3ccccc3c3nc(-c4cccnc4)nn23)cc1 18.2%
Cc1ccc(-n2nc(C)c(C(=O)NCCCN3CCN(c4cccc(Cl)c4)CC3)c2-n2cccc2)cc1 -9.8%
CCc1ccccc1NC(=O)C1CCN(c2nc3ccccc3[nH]2)CC1 -18.7%
Cc1ccc(C)c(CN2C(=O)c3ccccc3S(=O)(=O)c3ccc(C(=O)NCCc4ccc(Cl)cc4)cc32)c1 -4.88%
CCOC(=O)c1c(C)[nH]c(C)c1S(=O)(=O)NCC(=O)NCc1cccc(Br)c1 -11.3%
CC(C)CCSc1nnc2n(-c3ccccc3)c(=O)c3c4c(sc3n12)CC(C)CC4 (centres undefined) -0.155%
CCc1ccc(NC(=O)Cn2c(=O)nc(-c3ccccc3F)c3cc(Cl)ccc32)cc1 -10.1%
COC(=O)c1ccccc1N(C)S(=O)(=O)c1cc2c3c(c1)CC(=O)N3CCC2 -18.4%
Cc1cc(C)nc(-n2nc(C)c3c2N(Cc2ccccc2C)C(=O)CC3c2ccc(Cl)cc2)n1 (centres undefined) -8.1%
COc1cccc(NC(=O)/C(C#N)=C/c2ccc(-c3ccc(C)cc3)o2)c1 -24.9%
Cc1ccc2cc3cc(C(=O)N4CCN(c5ccccc5)CC4)sc3nc2c1 -12.9%
O=C(Cn1cc(S(=O)(=O)Cc2cccc(Cl)c2)c2ccccc21)NCc1ccccc1Cl -2.01%
Cc1ccc(S(=O)(=O)Nc2cccc(-c3ccc(N4CCCC4)nn3)c2)c(C)c1 -4.77%
Cc1ccc(CNC(=O)CCn2cnc3ccccc3c2=O)cc1 -4.54%
Cc1ccc2nc(Nc3ccc(C)c(F)c3)c3nncn3c2c1 -15.6%
Cc1c(Cl)cccc1NC(=O)C1CCN(c2ncnc3c2nc2n3CCCCC2)CC1 -15.2%
COc1ccccc1CN1C(=O)CN(C2CCCCCC2)C(=O)C1c1ccc(F)cc1 (centres undefined) -26.3%
CCN(C(=O)Nc1cn(CC(C)C)c(=O)c2ccccc12)c1cc(C)ccc1C -6.15%
CCOC(=O)c1cnn(-c2ccc(C(=O)Nc3cccc(C(C)=O)c3)cc2)c1N -0.223%
Cc1ccc(N2CC(NC(=O)c3ccc(S(=O)(=O)N4CCOCC4)cc3)CC2=O)cc1 (centres undefined) 9.68%
CCn1nc(C)c(CCN(C)C(=O)Nc2cc(OC)c(OC)c(OC)c2)c1C -4.63%
O=C(COCc1cc(-c2cccs2)on1)N1CCN(c2cccc(Cl)c2)CC1 -9.56%
COc1ccc2cc(C(=O)NCc3ccc4c(c3)CCN4C(=O)c3ccc(F)cc3)[nH]c2c1 -14.6%
Fc1cccc(-c2nnn3c2nc(NCCc2ccccc2)c2ccccc23)c1 9.18%
O=C(CCn1c(=O)c2cccn2c2cccnc21)N1CCN(c2ccccc2F)CC1 -17.9%
COc1cc(C)cc2oc(=O)c(CC(=O)NCCc3ccc(Cl)cc3)c(C)c12 12.1%
CCn1c(=N)n(CCOc2ccc(Br)cc2)c2ccccc21 5.34%
CC(C)CNC(=O)N1[C@H](c2cccs2)[C@@H](C)C(=O)[C@@H](C)[C@@H]1c1cccs1 -21%
Cc1cccc(OCC(=O)Nc2ccc(-c3nc4ccccc4o3)cc2)c1C 32.6%
COc1ccc(C)cc1NS(=O)(=O)c1c(C(=O)N2CCCCCC2)c(C)n(C)c1C -17.9%
